# Assay results from the supplement of paper PMC8728848.
# Some of the results follow.
# B1: SP16664D-bth-476-27-476 (Bacteroides thetaiotaomicron) (protein)
# chain: DDLEVGKNIDESAYSGIYENNAYLRDGKSNLVSKVVELHGETYATTVKMGLSKTPNTATSAKVKIDAAYLETYNKAHNTDFALYPQDLVTFANEGILTVNANTKSAEVEMTIRAGEGLQEDKTYAIPVAISDQSSDITIKDEDAKHCIYLVKDMRNAGDAYKGEGVMQGYLFFEVNDVNPLNTLSFQLENGKLLWDVVVLFAANINYDAEAGRPRVQCNPNVQYLLDNNETLLQPLRRRGVKVLLGLLGNHDITGLAQLSEQGAKDFAREVAQYCKAYNLDGVNYDDEYSNSPDLSNPSLTNPSTAAAARLCYETKQAMPDKLVTVFDWGQMYGVATVDGVDAKEWIDIVVANYGSAAYPIGQMTKKQCSGISMEFNLGGGGSLSASKAQSMIDGGYGWFMGFAPSPAKYGSVFSRLQGGGEVLYGSNVAAPTIFYKKNDPTPYKYPDDL
# Assays:
# Assay in all cases: glycan array binding signal (z-score within array); higher = stronger binding
# Conditions in all cases: glycan notation: IUPAC condensed, linker removed
# [1] = target: Fuc(a1-3)[Gal3S(b1-4)]GlcNAc6S
# Method in brief: (§1)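 Glycan array data were curated from 3228 arrays in the Consortium for Functional Glycomics database and kept only where the protein sequence was available. Glycan names were converted to IUPAC-condensed notation, and columns mapping to the same glycan were averaged. The binding signal is a within-array Z-score, averaged across arrays of the same protein sequence at different concentrations or buffers and across linkers. Negative Z-scores can be read as non-binding.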
# [2] = target: Fuc(a1-3)[GalNAc(b1-4)]GlcNAc
# Method in brief: as §1
# [3] = target: Fuc(a1-3)[GalNAc(b1-4)]GlcNAc6S
# Method in brief: as §1
# Fuc(a1-4)GlcNAc = target: Fuc(a1-4)GlcNAc
# Method in brief: as §1
# Fuc(b1-3)GlcNAc = target: Fuc(b1-3)GlcNAc
# Method in brief: as §1
# Gal(a1-2)Gal = target: Gal(a1-2)Gal
# Method in brief: as §1
# Gal(a1-3)Gal = target: Gal(a1-3)Gal
# Method in brief: as §1
# Gal(a1-3)Gal(b1-3)GlcNAc = target: Gal(a1-3)Gal(b1-3)GlcNAc
# Method in brief: as §1
# [4] = target: Gal(a1-3)Gal(b1-3)GlcNAc(b1-2)Man
# Method in brief: as §1
# [5] = target: Gal(a1-3)Gal(b1-3)GlcNAc(b1-2)Man(a1-3)[Gal(a1-3)Gal(b1-3)GlcNAc(b1-2)Man(a1-6)]Man(b1-4)GlcNAc(b1-4)GlcNAc
# Method in brief: as §1
# [6] = target: Gal(a1-3)Gal(b1-3)GlcNAc(b1-3)GalNAc
# Method in brief: as §1
# [7] = target: Gal(a1-3)Gal(b1-3)GlcNAc(b1-6)GalNAc
# Method in brief: as §1
# [8] = target: Gal(a1-3)Gal(b1-3)[Fuc(a1-4)]GlcNAc(b1-2)Man(a1-3)[Gal(a1-3)Gal(b1-3)[Fuc(a1-4)]GlcNAc(b1-2)Man(a1-6)]Man(b1-4)GlcNAc(b1-4)GlcNAc
# Method in brief: as §1
# Gal(a1-3)Gal(b1-4)Glc = target: Gal(a1-3)Gal(b1-4)Glc
# Method in brief: as §1
# Gal(a1-3)Gal(b1-4)GlcNAc = target: Gal(a1-3)Gal(b1-4)GlcNAc
# Method in brief: as §1
# [9] = target: Gal(a1-3)Gal(b1-4)GlcNAc(b1-2)Man
# Method in brief: as §1
# [10] = target: Gal(a1-3)Gal(b1-4)GlcNAc(b1-2)Man(a1-3)[Gal(a1-3)Gal(b1-4)GlcNAc(b1-2)Man(a1-6)]Man(b1-4)GlcNAc(b1-4)GlcNAc
# Method in brief: as §1
# [11] = target: Gal(a1-3)Gal(b1-4)GlcNAc(b1-3)GalNAc
# Method in brief: as §1
# [12] = target: Gal(a1-3)Gal(b1-4)GlcNAc(b1-6)GalNAc
# Method in brief: as §1
# [13] = target: Gal(a1-3)Gal(b1-4)[Fuc(a1-3)]GlcNAc
# Method in brief: as §1
# [14] = target: Gal(a1-3)Gal(b1-4)[Fuc(a1-3)]GlcNAc(b1-2)Man(a1-3)[Gal(a1-3)Gal(b1-4)[Fuc(a1-3)]GlcNAc(b1-2)Man(a1-6)]Man(b1-4)GlcNAc(b1-4)GlcNAc
# Method in brief: as §1
# Gal(a1-3)GalNAc = target: Gal(a1-3)GalNAc
# Method in brief: as §1
# [15] = target: Gal(a1-3)[Gal(a1-4)]Gal(b1-4)GlcNAc
# Method in brief: as §1
# [16] = target: Gal(a1-4)Gal(b1-3)GlcNAc(b1-2)Man(a1-3)[Gal(a1-4)Gal(b1-3)GlcNAc(b1-2)Man(a1-6)]Man(b1-4)GlcNAc(b1-4)GlcNAc
# Method in brief: as §1
# Gal(a1-4)Gal(b1-4)Glc = target: Gal(a1-4)Gal(b1-4)Glc
# Method in brief: as §1
# Gal(a1-4)Gal(b1-4)GlcNAc = target: Gal(a1-4)Gal(b1-4)GlcNAc
# Method in brief: as §1
# [17] = target: Gal(a1-4)Gal(b1-4)GlcNAc(b1-2)Man(a1-3)[Gal(a1-4)Gal(b1-4)GlcNAc(b1-2)Man(a1-6)]Man(b1-4)GlcNAc(b1-4)GlcNAc
# Method in brief: as §1
# [18] = target: Gal(a1-4)Gal(b1-4)GlcNAc(b1-3)Gal(b1-4)Glc
# Method in brief: as §1
# Gal(a1-4)GlcNAc = target: Gal(a1-4)GlcNAc
# Method in brief: as §1
# Gal(a1-6)Glc = target: Gal(a1-6)Glc
# Method in brief: as §1
# Gal(b1-2)Gal = target: Gal(b1-2)Gal
# Method in brief: as §1
# Gal(b1-3)Gal = target: Gal(b1-3)Gal
# Method in brief: as §1
# Gal(b1-3)Gal(b1-4)GlcNAc = target: Gal(b1-3)Gal(b1-4)GlcNAc
# Method in brief: as §1
# Gal(b1-3)GalNAc = target: Gal(b1-3)GalNAc
# Method in brief: as §1
# [19] = target: Gal(b1-3)GalNAc(a1-3)[Fuc(a1-2)]Gal(b1-4)Glc
# Method in brief: as §1
# [20] = target: Gal(b1-3)GalNAc(a1-3)[Fuc(a1-2)]Gal(b1-4)GlcNAc
# Method in brief: as §1
# Gal(b1-3)GalNAc(b1-3)Gal = target: Gal(b1-3)GalNAc(b1-3)Gal
# Method in brief: as §1
binder,measurement,setting,value
B1,glycan array binding signal (z-score),[1],0.051
same,glycan array binding signal (z-score),[2],0.226
same,glycan array binding signal (z-score),[3],0.153
same,glycan array binding signal (z-score),Fuc(a1-4)GlcNAc,5.19
same,glycan array binding signal (z-score),Fuc(b1-3)GlcNAc,-0.141
same,glycan array binding signal (z-score),Gal(a1-2)Gal,-0.178
same,glycan array binding signal (z-score),Gal(a1-3)Gal,0.512
same,glycan array binding signal (z-score),Gal(a1-3)Gal(b1-3)GlcNAc,0.314
same,glycan array binding signal (z-score),[4],0.085
same,glycan array binding signal (z-score),[5],-0.009
same,glycan array binding signal (z-score),[6],-0.337
same,glycan array binding signal (z-score),[7],-0.009
same,glycan array binding signal (z-score),[8],-0.145
same,glycan array binding signal (z-score),Gal(a1-3)Gal(b1-4)Glc,-0.117
same,glycan array binding signal (z-score),Gal(a1-3)Gal(b1-4)GlcNAc,-0.212
same,glycan array binding signal (z-score),[9],-0.136
same,glycan array binding signal (z-score),[10],0.219
same,glycan array binding signal (z-score),[11],-0.12
same,glycan array binding signal (z-score),[12],-0.225
same,glycan array binding signal (z-score),[13],-0.017
same,glycan array binding signal (z-score),[14],-0.18
same,glycan array binding signal (z-score),Gal(a1-3)GalNAc,0.453
same,glycan array binding signal (z-score),[15],0.109
same,glycan array binding signal (z-score),[16],-0.227
same,glycan array binding signal (z-score),Gal(a1-4)Gal(b1-4)Glc,-0.388
same,glycan array binding signal (z-score),Gal(a1-4)Gal(b1-4)GlcNAc,-0.17
same,glycan array binding signal (z-score),[17],-0.016
same,glycan array binding signal (z-score),[18],-0.292
same,glycan array binding signal (z-score),Gal(a1-4)GlcNAc,0.125
same,glycan array binding signal (z-score),Gal(a1-6)Glc,-0.295
same,glycan array binding signal (z-score),Gal(b1-2)Gal,-0.289
same,glycan array binding signal (z-score),Gal(b1-3)Gal,-0.191
same,glycan array binding signal (z-score),Gal(b1-3)Gal(b1-4)GlcNAc,0.095
same,glycan array binding signal (z-score),Gal(b1-3)GalNAc,-0.171
same,glycan array binding signal (z-score),[19],-0.047
same,glycan array binding signal (z-score),[20],-0.433
same,glycan array binding signal (z-score),Gal(b1-3)GalNAc(b1-3)Gal,-0.348
